Experimental data from patent US20180057601A1 (PIERRE FABRE MEDICAMENT, published 2018).

What was measured:
[1] = molecular target: T1, soluble ADAM17 (extracellular domain of ADAM-17) (human, UniProt P78536 215-671); experiment: SPR (Biacore) single cycle kinetics, antibody captured by anti-human IgG Fc at 452.0 RU, ADAM17 6.25-100 nM
T1 construct: also called TACE
Experimental: (§1) Each antibody (used as the ligand) was bound at two different level on the second flowcell of a Biacore CM5 sensor chip (GE Healthcare) activated on both flowcells with a mouse anti-human IgG Fc specific covalently linked to the carboxymethyldextran matrix. For each antibody and each level of capture, five concentrations of soluble ADAM17 (the analyte with a molecular weight of 52 kDa) at concentrations ranging either from 12.5 to 200 nM or from 6.25 to 100 nM obtained by a two fold dilution scheme were injected in the growing range of concentrations at a flow rate of 30 μl/min. Each concentration was injected during 90 s. At the end of the 5th injection, the running buffer was injected during 600 s for the dissociation phase measurement. At the end of each cycle, the surface was regenerated by an injection of 10 mM Glycine, HCl pH 1.7 buffer during 30 s. The sensorgramms obtained were double referenced by first subtracting the signal from the reference FC1 surface (without any anti-ADAM17 antibodies) followed by subtraction of the sensorgramm obtained for each antibody and each level of capture by 5 injections of the running buffer (Biacore HBS-EP buffer). Data were processed using BIAevaluation 3.1 software using the 1:1 Langmuir model.

[2] = molecular target: T1, soluble ADAM17 (extracellular domain of …); experiment: SPR (Biacore) single cycle kinetics, antibody captured by anti-human IgG Fc at 1152.6 RU, ADAM17 6.25-100 nM
Experimental: as §1

[3] = molecular target: T1, soluble ADAM17 (extracellular domain of …); experiment: SPR (Biacore) single cycle kinetics, antibody captured by anti-human IgG Fc at 452.0 RU, ADAM17 12.5-200 nM
Experimental: as §1

[4] = molecular target: T1, soluble ADAM17 (extracellular domain of …); experiment: SPR (Biacore) single cycle kinetics, antibody captured by anti-human IgG Fc at 1152.6 RU, ADAM17 12.5-200 nM
Experimental: as §1

[5] = molecular target: T1, soluble ADAM17 (extracellular domain of …); experiment: SPR (Biacore) single cycle kinetics, antibody captured by anti-human IgG Fc at 480.5 RU, ADAM17 12.5-200 nM
Experimental: as §1

[6] = molecular target: T1, soluble ADAM17 (extracellular domain of …); experiment: SPR (Biacore) single cycle kinetics, antibody captured by anti-human IgG Fc at 1171.0 RU, ADAM17 12.5-200 nM
Experimental: as §1

[7] = molecular target: T1, soluble ADAM17 (extracellular domain of …); experiment: SPR (Biacore) single cycle kinetics, antibody captured by anti-human IgG Fc at 1171.0 RU, ADAM17 6.25-100 nM
Experimental: as §1

[8] = molecular target: T1, soluble ADAM17 (extracellular domain of …); experiment: SPR (Biacore) single cycle kinetics, mean ± SE of the four runs
Experimental: as §1

[9] = molecular target: T1, soluble ADAM17 (extracellular domain of …); experiment: SPR (Biacore) single cycle kinetics, antibody captured by anti-human IgG Fc at 480.5 RU, ADAM17 6.25-100 nM
Experimental: as §1

T1 sequence (P78536 215-671): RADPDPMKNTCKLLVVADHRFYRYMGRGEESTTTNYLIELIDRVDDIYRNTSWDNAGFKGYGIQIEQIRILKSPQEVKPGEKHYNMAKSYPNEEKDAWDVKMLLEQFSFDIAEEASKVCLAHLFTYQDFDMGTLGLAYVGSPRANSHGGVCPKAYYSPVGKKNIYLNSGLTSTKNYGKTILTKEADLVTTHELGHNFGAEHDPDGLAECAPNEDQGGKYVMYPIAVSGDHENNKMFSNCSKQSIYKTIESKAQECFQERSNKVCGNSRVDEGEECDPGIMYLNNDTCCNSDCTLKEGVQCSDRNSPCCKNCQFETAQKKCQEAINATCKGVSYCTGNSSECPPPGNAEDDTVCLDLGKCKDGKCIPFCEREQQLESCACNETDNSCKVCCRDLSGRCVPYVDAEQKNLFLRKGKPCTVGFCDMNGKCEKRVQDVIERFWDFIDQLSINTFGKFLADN

B1: Hz1022C3 IgG1 (antibody)
heavy: QVQLQESGPGLVKPSETLSLTCTVSGFSLDTSGMGVSWIRQPAGKGLEWIGHIYWDDDKRYNPSLKSRVTMSKDTSSNQVSLKLSSVTAADTAVYYCARRSHFGNYYYAMDYWGQGTTVTVSSASTKGPSVFPLAPSSKSTSGGTAALGCLVKDYFPEPVTVSWNSGALTSGVHTFPAVLQSSGLYSLSSVVTVPSSSLGTQTYICNVNHKPSNTKVDKRV[not shown - human IgG1 Fc]
light: DIQMTQSPSSLSASVGDRVTITCRASQDISSYLNWYQQKPGKAPKLLIFYTSRLQSGVPSRFSGSGSGTDFTLTISSLQPEDFATYYCQQGKTLPLTFGGGTKVEIKRTVAAPSVFIFPPSDEQLKSGTASVVCLLNNFYPREAKVQWKVDNALQSGNSQESVTEQDSKDSTYSLSSTLTLSKADYEKHKVYACEVTHQGLSSPVTKSFNRGEC
notes: also called humanized 1022C3 IgG1
B1 gave a Kd [1] of 0.83 nM, a koff [1] of 0.000224 s⁻¹ and a kon [1] of 268000 M⁻¹ s⁻¹. For the same binder, the Kd [2] was 1.36 nM, the koff [2] was 0.000242 s⁻¹ and the kon [2] was 178000 M⁻¹ s⁻¹. The Kd [3] was 1 nM, the koff [3] was 0.000227 s⁻¹ and the kon [3] was 227000 M⁻¹ s⁻¹. For the same binder, the Kd [4] was 1.61 nM, the koff [4] was 0.000246 s⁻¹ and the kon [4] was 153000 M⁻¹ s⁻¹.

B2: Hz1022C3 IgG4 (antibody)
heavy: QVQLQESGPGLVKPSETLSLTCTVSGFSLDTSGMGVSWIRQPAGKGLEWIGHIYWDDDKRYNPSLKSRVTMSKDTSSNQVSLKLSSVTAADTAVYYCARRSHFGNYYYAMDYWGQGTTVTVSSASTKGPSVFPLAPCSRSTSESTAALGCLVKDYFPEPVTVSWNSGALTSGVHTFPAVLQSSGLYSLSSVVTVPSSSLGTKTYTCNVDHKPSNTKVDKRV[not shown - human IgG4 Fc with S228P (EU numbers)]
light: DIQMTQSPSSLSASVGDRVTITCRASQDISSYLNWYQQKPGKAPKLLIFYTSRLQSGVPSRFSGSGSGTDFTLTISSLQPEDFATYYCQQGKTLPLTFGGGTKVEIKRTVAAPSVFIFPPSDEQLKSGTASVVCLLNNFYPREAKVQWKVDNALQSGNSQESVTEQDSKDSTYSLSSTLTLSKADYEKHKVYACEVTHQGLSSPVTKSFNRGEC
notes: also called humanized 1022C3 IgG4
B2 gave a Kd [5] of 0.91 nM, a koff [5] of 0.000176 s⁻¹ and a kon [5] of 194000 M⁻¹ s⁻¹. The Kd [6] was 1.38 nM, the koff [6] was 0.000182 s⁻¹ and the kon [6] was 132000 M⁻¹ s⁻¹. It also gave a Kd [7] of 1.16 nM, a koff [7] of 0.000182 s⁻¹ and a kon [7] of 156000 M⁻¹ s⁻¹. It also gave a Kd [8] of 1.05 nM, a Kd [9] of 0.76 nM and a koff [9] of 0.000177 s⁻¹. The kon [9] was 233000 M⁻¹ s⁻¹.
